Where two headings read alike, the source gives them in different places.
How the values were obtained:
[1] = target: T1, SARS-CoV-2 main protease (Mpro) (Severe acute respiratory syndrome coronavirus 2 (2019-nCoV) (SARS-CoV-2), UniProt P0DTD1); test: biochemical; conditions: IC50 (μM), several values in a cell are measurements on various days, lowest most representative
[2] = target: T1, SARS-CoV-2 main protease (Mpro); conditions: several values in a cell are measurements on various days, lowest most representative

Compound | IC50 [1] | IC50 [2]
CC(C)C[C@@H]1CN(C(=O)COS(=O)(=O)N2CCN(C)CC2)CCN1Cc1cccc(Cl)c1 (racemic) [Compound A4] | > 99.5 µM | –
CC(C)C[C@H]1CN(C(=O)CCl)CCN1Cc1cccc(Cl)c1 [A] | – | 700 ± 83.7 nM
O=C(NCc1ccccn1)[C@H]1CN(C(=O)CCl)CCN1S(=O)(=O)c1ccsc1 [C] | – | 307 nM
CC(NC(=O)CCl)c1cc(Cl)cc(-c2ccc(S(N)(=O)=O)cc2)c1 (stereo not shown) [B] | – | 466 nM

From US20250304585A1, “SULFAMATE BASED COVALENT LIGAND-DIRECTED RELEASE (COLDR) COMPOUNDS” (priority 2022, published 2025)
